# Experimental data as given in the supplement of paper PMC9446081.
# The campaign covered roughly 39,000 compounds. About 220 (0.56%) showed activity. The list shows a part of the results.
# Test system: Escherichia coli K-12 BW25113
# Assay: relative growth (OD600 normalised to plate interquartile mean) (fraction); higher = less growth inhibition, active = 0.2 or less
# Conditions: 50 µM; LB; incubation time: overnight (16-24 h)
# 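Also: static incubation at 37 °C against the wild-type strain, values averaged over two biological replicates.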
row,SMILES,relative growth
1,C[C@H]1CCCCO[C@H](CN(C)S(C)(=O)=O)[C@@H](C)CN([C@@H](C)CO)C(=O)c2cc(N(C)C)ccc2O1,inactive: 1.01
2,C[C@H]1CN([C@@H](C)CO)S(=O)(=O)c2ccc(-c3cncnc3)cc2O[C@H]1CN(C)C(=O)Cc1cccnc1,inactive: 0.998
3,C[C@H]1CN([C@@H](C)CO)S(=O)(=O)c2ccc(/C=C/c3ccccc3)cc2O[C@@H]1CN(C)C(=O)CN1CCOCC1,inactive: 1.04
4,COc1cc2nc(N(C)CCCNC(=O)C3CCCO3)nc(N)c2cc1OC.Cl (stereo not given),inactive: 1.05
5,NC(=O)c1cnccn1,inactive: 1.09
6,C[C@@H]1CN([C@@H](C)CO)C(=O)CCCn2nncc2CO[C@@H]1CN(C)C(=O)Nc1cccc(C(F)(F)F)c1,inactive: 0.929
7,O=S(=O)([O-])CCSSCCS(=O)(=O)[O-].[Na+].[Na+],inactive: 1.07
8,C[C@H]1CN([C@@H](C)CO)C(=O)c2cccc(NS(=O)(=O)c3ccc(F)cc3)c2O[C@@H]1CN(C)S(=O)(=O)c1cccs1,inactive: 1.04
9,CC(C)(C)OC(=O)C[C@H]1CC=CC[C@H](CC(=O)N[C@@H](CO)Cc2ccccc2)C(=O)N2CCC[C@@H]2COC1=O,inactive: 1
10,C[C@H](CO)N1C[C@H](C)[C@@H](CN(C)Cc2ccc(C(=O)O)cc2)OCCCC[C@H](C)Oc2ccc(NC(=O)c3ccccc3)cc2C1=O,inactive: 1
11,C[C@@H]1CCCCO[C@@H](CN(C)S(=O)(=O)c2ccc(Cl)cc2)[C@H](C)CN([C@@H](C)CO)C(=O)c2cc(NC(=O)c3ccncc3)ccc2O1,inactive: 1.05
12,CO[C@H]1CN(C)C(=O)c2ccc(NC(=O)C3CC3)cc2OC[C@H](C)N(C(=O)C2CCOCC2)C[C@H]1C,inactive: 0.991
13,C[C@@H]1CN([C@@H](C)CO)C(=O)c2cc(NC(=O)NC3CCCCC3)ccc2O[C@H]1CN(C)Cc1ccc(Cl)c(Cl)c1,inactive: 1.01
14,C[C@H]1CN([C@@H](C)CO)C(=O)c2cc(NC(=O)Cc3ccccc3)ccc2O[C@H]1CN(C)Cc1ccc(Cl)c(Cl)c1,inactive: 1.01
15,CO[C@@H]1CN(C)C(=O)c2ccc(NC(=O)C3CC3)cc2OC[C@H](C)N(C(=O)CN2CCOCC2)C[C@H]1C,inactive: 0.999
16,Cc1ccc(-c2ncns2)cc1,inactive: 0.974
17,C[C@H]1CCCCO[C@H](CN(C)C(=O)C2CCCCC2)[C@@H](C)CN([C@@H](C)CO)C(=O)c2cc(NS(=O)(=O)c3ccc(F)cc3)ccc2O1,inactive: 1.01
18,C[C@@H]1CN([C@@H](C)CO)S(=O)(=O)c2ccc(C3=CCCC3)cc2O[C@H]1CN(C)C(=O)c1cnccn1,inactive: 0.991
19,C[C@@H]1CCCCO[C@@H](CN(C)C(=O)c2ccccc2)[C@H](C)CN([C@H](C)CO)C(=O)c2cc(NC(=O)Nc3cccc4ccccc34)ccc2O1,inactive: 1.03
20,C[C@H]1CN([C@@H](C)CO)C(=O)Cc2cc(NC(=O)CCN3CCOCC3)ccc2O[C@@H]1CN(C)C(=O)Nc1ccc2c(c1)OCO2,inactive: 0.965

row,SMILES,relative growth
1,CN1C(=O)c2cc(NC(=O)c3ccc(F)cc3)ccc2OC[C@H]2O[C@@H](CC(=O)N3CCOCC3)CC[C@H]21,inactive: 0.956
2,Cc1ccc(Nc2c(-c3ccccc3)nc3ccccn23)cc1,inactive: 1.01
3,C[C@@H]1CN([C@@H](C)CO)C(=O)c2cc(NC(=O)Cn3cnnn3)ccc2O[C@H]1CN(C)C(=O)Nc1ccc2c(c1)OCO2,inactive: 1
4,C[C@H](CO)N1C[C@H](C)[C@@H](CN(C)C(=O)Nc2ccc(C(F)(F)F)cc2)OCCCC[C@H](C)Oc2ccc(NC(=O)Nc3ccc(C(F)(F)F)cc3)cc2C1=O,inactive: 1.05
5,Cc1ccc(S(=O)(=O)N2C[C@@H](O)COC[C@H]3O[C@@H](CC(=O)NCCN4CCCCC4)CC[C@@H]32)cc1,inactive: 1.04
6,COc1ccc(CNC(=O)N(C)C[C@H]2OCc3ccccc3-c3c(n(C)c4ccccc34)C(=O)N([C@H](C)CO)C[C@@H]2C)cc1,inactive: 1.01
7,C[C@@H]1CN([C@H](C)CO)C(=O)c2ccccc2-c2ccccc2CO[C@@H]1CN(C)S(=O)(=O)c1ccc(C(F)(F)F)cc1,inactive: 1.03
8,C[C@@H]1CN([C@@H](C)CO)C(=O)c2cc(NC(=O)C3CCCCC3)ccc2O[C@@H](C)CCCCO[C@H]1CN(C)S(=O)(=O)c1ccccc1,inactive: 1.01
9,C[C@@H]1CN([C@@H](C)CO)C(=O)c2cc(-c3cncnc3)cnc2O[C@H]1CN(C)C(=O)CN1CCOCC1,inactive: 0.956
10,CO[C@H]1CN(C)C(=O)c2cc(NC(=O)C3CC3)ccc2OC[C@@H](C)N(C(=O)CN2CCOCC2)C[C@@H]1C,inactive: 0.978
11,C[C@H](CO)N1C[C@H](C)[C@H](CN(C)C(=O)Nc2ccc(F)cc2)Oc2ccc(NC(=O)Cn3cnnn3)cc2CC1=O,inactive: 0.986
12,C[C@H]1CN([C@@H](C)CO)C(=O)c2cccc(NC(=O)Nc3ccc(F)cc3)c2O[C@H]1CN(C)S(=O)(=O)c1cn(C)cn1,inactive: 0.994
13,COc1ccc(-c2cnc3c(c2)C(=O)N([C@H](C)CO)C[C@H](C)[C@H](CN(C)S(=O)(=O)c2cccs2)O3)cc1,inactive: 1.01
14,CCCNC(=O)N1C[C@H](C)[C@@H](OC)CN(C)C(=O)c2ccc(NS(=O)(=O)CC(F)(F)F)cc2OC[C@H]1C,inactive: 0.959
15,C[C@@H]1CN([C@H](C)CO)C(=O)c2cc(NS(=O)(=O)c3cccs3)ccc2O[C@@H](C)CCCCO[C@H]1CN(C)C(=O)Nc1ccc(F)cc1,inactive: 1.02
16,C[C@H]1CN([C@@H](C)CO)S(=O)(=O)c2ccc(C#Cc3ccc(F)cc3)cc2O[C@H]1CN(C)S(=O)(=O)c1cn(C)cn1,inactive: 1.03
17,COc1ccc(N2C(=O)N(CCc3ccc(OC)c(OC)c3)[C@@H]3[C@@H](Cc4ccccc4)[C@H]2C(=O)N3Cc2ccccc2)cc1,inactive: 1.02
18,C[C@@H]1C[C@H]1C(=O)O,inactive: 0.986
19,COc1ccc(CN(C)C[C@H]2OCCCC[C@H](C)Oc3ccc(NC(=O)Nc4ccccc4)cc3C(=O)N([C@@H](C)CO)C[C@@H]2C)cc1,inactive: 1.01
20,O=C(C[C@H]1C[C@@H]2c3cc(NC(=O)NC4CCCC4)ccc3O[C@@H]2[C@@H](CO)O1)NCc1ccc(-c2ccccc2)cc1,inactive: 0.955

row,SMILES,relative growth
1,COC(=O)COc1nsnc1N1CCOCC1,inactive: 0.985
2,COc1ccc(NC(=O)Nc2ccc3c(c2)C(=O)N([C@H](C)CO)C[C@H](C)[C@H](CN(C)S(=O)(=O)c2cccs2)OCCCC[C@@H](C)O3)cc1,inactive: 1.01
3,C[C@@H]1CN([C@H](C)CO)C(=O)c2cc(C#CCN(C)C)cnc2O[C@H]1CN(C)C(=O)CN1CCOCC1,inactive: 1
4,C[C@@H]1CN([C@@H](C)CO)C(=O)c2cc(NC(=O)Cn3cnnn3)ccc2O[C@H]1CN(C)S(=O)(=O)c1ccccc1,inactive: 0.996
5,Cc1ccc(S(=O)(=O)Nc2ccc3c(c2)C(=O)N([C@H](C)CO)C[C@H](C)[C@H](CN(C)C(=O)Nc2cccc4ccccc24)OCCCC[C@@H](C)O3)cc1,inactive: 1
6,C[C@@H]1CN([C@@H](C)CO)C(=O)c2ccccc2-c2ccccc2CO[C@H]1CN(C)C(=O)c1cc(Cl)cc(Cl)c1,inactive: 0.997
7,Cc1noc(C)c1S(=O)(=O)Nc1ccc2c(c1)CC(=O)N([C@@H](C)CO)C[C@H](C)[C@@H](CN(C)C(=O)Nc1ccc3c(c1)OCO3)O2,inactive: 1.04
8,C[C@@H]1CN([C@H](C)CO)C(=O)c2cc(C#Cc3ccccc3F)cnc2O[C@H]1CN(C)S(=O)(=O)c1ccccc1F,inactive: 1.03
9,O=C(C[C@@H]1CC[C@@H]2[C@H](COC[C@H](O)CN2S(=O)(=O)c2cccc(Cl)c2)O1)N1CCOCC1,inactive: 1
10,Cc1ccc2ccccc2n1,inactive: 1.04
11,CO[C@@H]1CN(C)C(=O)c2cc(NC(=O)NC(C)C)ccc2OC[C@@H](C)N(Cc2ccc(-c3ccccn3)cc2)C[C@H]1C,inactive: 1
12,C[C@H]1CN([C@@H](C)CO)C(=O)c2c(c3ccccc3n2C)-c2ccccc2CO[C@@H]1CN(C)C(=O)c1ccc(F)cc1,inactive: 1.04
13,Cc1ccc(S(=O)(=O)Nc2ccc3c(c2)C(=O)N([C@H](C)CO)C[C@H](C)[C@H](CN(C)S(=O)(=O)c2ccc(Cl)cc2)OCCCC[C@@H](C)O3)cc1,inactive: 1.01
14,CC(C)(O)C#Cc1ccc([C@@H]2[C@@H](CO)N3CCCCN(S(C)(=O)=O)C[C@H]23)cc1,inactive: 0.984
15,C[C@H](CO)N1C[C@H](C)[C@H](CN(C)C(=O)Nc2ccccc2)OCCCC[C@H](C)Oc2ccc(NS(=O)(=O)c3cccs3)cc2C1=O,inactive: 1.01
16,C[C@H](CO)N1C[C@H](C)[C@H](CN(C)C(=O)Nc2ccc(F)cc2)OCCCC[C@H](C)Oc2ccc(NC(=O)Cc3ccccc3)cc2C1=O,inactive: 1
17,C[C@H](CO)N1C[C@H](C)[C@@H](CN(C)C(=O)CN2CCOCC2)Oc2ncc(C3=CCCCC3)cc2C1=O,inactive: 0.999
18,CNC[C@@H]1Oc2cc(C#CC(C)(C)O)ccc2S(=O)(=O)N([C@@H](C)CO)C[C@H]1C,inactive: 1.01
19,C[C@@H]1CCCCO[C@H](CN(C)Cc2ccncc2)[C@@H](C)CN([C@H](C)CO)C(=O)c2cc(NC(=O)c3ccccc3)ccc2O1,inactive: 0.993
20,C[C@@H]1CN([C@@H](C)CO)C(=O)Cc2cc(NC(=O)Cn3cnnn3)ccc2O[C@H]1CN(C)Cc1ccc(C(=O)Nc2ccccc2N)cc1,inactive: 1.01
